Source: article PMC7819943, “Rice protein-binding microarrays: a tool to detect cis-acting elements near promoter regions in rice”
Some of the results follow.

Biological target: T1, OsWOX13 (Oryza sativa, UniProt Q5QMM3 1-267)
T1 sequence: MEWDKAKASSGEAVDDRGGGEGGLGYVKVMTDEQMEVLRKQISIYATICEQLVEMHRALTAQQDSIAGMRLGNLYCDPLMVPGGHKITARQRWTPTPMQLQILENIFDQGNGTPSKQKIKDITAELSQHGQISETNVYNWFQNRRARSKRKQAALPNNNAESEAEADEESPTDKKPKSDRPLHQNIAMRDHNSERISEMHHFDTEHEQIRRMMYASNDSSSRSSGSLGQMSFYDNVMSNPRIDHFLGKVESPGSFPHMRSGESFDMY
Test: protein-binding microarray (RPBM); PBS, 2% BSA, 51.3 ng/ul salmon testes DNA, 50 uM zinc acetate, 200 nM TF, 25 C, 1 h; high values mean tight binding
Settings: protein: recombinant; tags: N-terminal polyhistidine and DsRed monomer fusion (pET32a); label: CyDye5-dUTP incorporated in the synthesized complementary strand; 3' TTTTT single-stranded linker to array surface; dsDNA, one strand shown
In short: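 Transcription factors were made in E. coli BL21-CodonPlus as N-terminal fusions to a polyhistidine tag and DsRed, then purified on Ni–NTA. After primer extension with Cy5-dUTP and blocking with 2% BSA, a custom Agilent array was exposed for 1 h at 25 °C to 200 nM protein in PBS, 2% BSA, salmon testes DNA and 50 µM zinc acetate. Washed arrays were scanned on an Axon 4000B, and the binding signal is per-feature fluorescence intensity in arbitrary units.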

Sequence	binding signal
TTAATTAATTAGAGATTAAAGCCTTTCTCTCCCCAATCCCCGGAGTCACCTAGTGCAG	50300 fluorescence intensity (a.u.)
CATGATGAGTATCAGTACGGTTCAGATTCATGGTATTGGGCGGAGTCACCTAGTGCAG	7560 fluorescence intensity (a.u.)
ATGCAATCAACAAACTGTCATCATCTCCAAATTTGCTTCACGGAGTCACCTAGTGCAG	16000 fluorescence intensity (a.u.)
TTTATGATTATATTCGTAATGCTACATAATTTGATATGATCGGAGTCACCTAGTGCAG	28100 fluorescence intensity (a.u.)
TAGACTAGATTAATAATAAACCACCTCAATAGTATGTCTACGGAGTCACCTAGTGCAG	3150 fluorescence intensity (a.u.)
AGTCAATCTCCCCGTCTGTCTTCTCGGCCTCAACTCCCGTCGGAGTCACCTAGTGCAG	6610 fluorescence intensity (a.u.)
TCTAATTGTTAGGCCAATTGTCAATAGCCTATAAACAACCCGGAGTCACCTAGTGCAG	32400 fluorescence intensity (a.u.)
TAATAGCTAATTAGACAATTTGAGTACTACGAATCCGAAACGGAGTCACCTAGTGCAG	14900 fluorescence intensity (a.u.)
TAAGGGCTATAATTTTGCTGTTAATTGTTCACTAGAAGAGCGGAGTCACCTAGTGCAG	3820 fluorescence intensity (a.u.)
ATTTGATTGGACATCATCGAAATACTGAAATTTCCAAAATCGGAGTCACCTAGTGCAG	36000 fluorescence intensity (a.u.)
CAATTTATTGCCGGTTAATTAACCGCCGGAATTGCATAAACGGAGTCACCTAGTGCAG	11100 fluorescence intensity (a.u.)
GGTCCCTAAATTTTACACTGAATCTAATTTTCGTCCTTAACGGAGTCACCTAGTGCAG	3190 fluorescence intensity (a.u.)
GTGGGATCAAACATTAATTAATTATATAGTACATGTTTATCGGAGTCACCTAGTGCAG	11700 fluorescence intensity (a.u.)
TAAATGATCTGTGATAATTATTTGAAGGTACGTACGAACGCGGAGTCACCTAGTGCAG	9760 fluorescence intensity (a.u.)
TGGACTGGATTGAATCCGGCGTAACCAAATAAGGCCTAAACGGAGTCACCTAGTGCAG	3270 fluorescence intensity (a.u.)
TCTTGTTGATTAGTACTCCCTCCGTTTCGAAATGCTTGACCGGAGTCACCTAGTGCAG	19000 fluorescence intensity (a.u.)
TATAGATATATAGATTGATGAGTACGTTAATGTCAACGAGCGGAGTCACCTAGTGCAG	43300 fluorescence intensity (a.u.)
AGGGGTTACAGCTAATTAACTCATTAAACACGAAGACAAACGGAGTCACCTAGTGCAG	12600 fluorescence intensity (a.u.)
GGTATTACTGACTGGATTACCATGTGTGCGTCACATCGGACGGAGTCACCTAGTGCAG	6490 fluorescence intensity (a.u.)
TTGCTGATTGAAGCTGATACTGTCGTGAAATGAACCATGTCGGAGTCACCTAGTGCAG	38200 fluorescence intensity (a.u.)
TAAGTAATTATTAATTCTTTTCCTATCATTTGATTTATTGCGGAGTCACCTAGTGCAG	11700 fluorescence intensity (a.u.)

Sequence	binding signal
ATGCTTAATCAATCAAGTGGTTGGTACTGCGTGCAAGATGCGGAGTCACCTAGTGCAG	21800 fluorescence intensity (a.u.)
GATGTGATAGGAACTTATTAGTCCCATCTAAACAGGTTCTCGGAGTCACCTAGTGCAG	9050 fluorescence intensity (a.u.)
GTAGATTGAGCAAGCAAATAAAGAAGGAGATAACATAAGGCGGAGTCACCTAGTGCAG	13800 fluorescence intensity (a.u.)
CTTCACATGGAATTCCAATTACCACTAACTGAAAACGACACGGAGTCACCTAGTGCAG	5930 fluorescence intensity (a.u.)
TATAGATTAGAGAATTAGTGGAGAACAAAATATAATAAAGCGGAGTCACCTAGTGCAG	5050 fluorescence intensity (a.u.)
TTAATTGATTGATGCATGGGCCTCTGTTCCAGCCCATACACGGAGTCACCTAGTGCAG	51600 fluorescence intensity (a.u.)
ACAAATTGCTGTTACCGGCATCTTCTCAAATCCATCCAGTCGGAGTCACCTAGTGCAG	17200 fluorescence intensity (a.u.)
GATATGATAGAATACTCCAAATTCATTCGATATGATAGAGCGGAGTCACCTAGTGCAG	6440 fluorescence intensity (a.u.)
TACGGCGGTGATAGACGACTTTGGGGCATTGGGCGGTTAACGGAGTCACCTAGTGCAG	3350 fluorescence intensity (a.u.)
GTGATGAAAGATTGGGATTCGTTGCGAGTTTCAGCTGCCTCGGAGTCACCTAGTGCAG	7690 fluorescence intensity (a.u.)
GCGATTAAATGTACAGTAAATAGGGATGAACAATATACGACGGAGTCACCTAGTGCAG	3570 fluorescence intensity (a.u.)
TACCTGATTTAGGCCTCACTTAGAGCCTTGTACAGGGCCTCGGAGTCACCTAGTGCAG	5100 fluorescence intensity (a.u.)
ACGTTGATTAGTTAGTACTAACCTACTCCTACGTGTTAACCGGAGTCACCTAGTGCAG	30400 fluorescence intensity (a.u.)
ACAGATTGAGGTTCGTCCTCGATGGGAAAATAGAGCACCCCGGAGTCACCTAGTGCAG	15500 fluorescence intensity (a.u.)
TAACCGATCAGTTGATTAATCCGGCTCTCTCGCCCGCACGCGGAGTCACCTAGTGCAG	4630 fluorescence intensity (a.u.)
TGAACCTAATTAATCCATGATTATCCTATGTGATGCTACACGGAGTCACCTAGTGCAG	31900 fluorescence intensity (a.u.)
GTCTAATTCTGAAATAATTTTATATAGGGTTAATTTACAACGGAGTCACCTAGTGCAG	6400 fluorescence intensity (a.u.)
GCCTAAGATAATTGATAAGAGTGCTTAAAGTGTACAACCGCGGAGTCACCTAGTGCAG	37500 fluorescence intensity (a.u.)
AAAATAACATCAATCTGAACGGGCTTTCAATTTAAATGGACGGAGTCACCTAGTGCAG	4700 fluorescence intensity (a.u.)
TTAAACCTAATTCCAATCAGAAACCAGCAGTCACCACAAACGGAGTCACCTAGTGCAG	19600 fluorescence intensity (a.u.)
TATGACATTTTAACTGATCTGAAATTTTGCAATGTAGCAGCGGAGTCACCTAGTGCAG	7030 fluorescence intensity (a.u.)

Sequence	binding signal
CAAAAGAACAATTATTGATCAACTAATGTACACGTCCCAGCGGAGTCACCTAGTGCAG	13900 fluorescence intensity (a.u.)
GAGCTGTCATAAATCATAATCATGAACATACAAGCATAATCGGAGTCACCTAGTGCAG	4020 fluorescence intensity (a.u.)
CTCTCTTTAATTAGCTAGATTGATGTATGTGGTTACTTACCGGAGTCACCTAGTGCAG	38500 fluorescence intensity (a.u.)
TGTCATGGAAAGAGAAAATTGATTTAGAATGTAGACCATTCGGAGTCACCTAGTGCAG	3750 fluorescence intensity (a.u.)
CGCCTTAATTACTTCGATTTCGAACAGAATGGGAATACAGCGGAGTCACCTAGTGCAG	37300 fluorescence intensity (a.u.)
GCTTTCCATTCTGATTTTGTCCTTTTCACCTACCAAAACGCGGAGTCACCTAGTGCAG	4010 fluorescence intensity (a.u.)
TCTCGATCCTTTTATTAATTAGTTTTCGAGTTTTCGTCGACGGAGTCACCTAGTGCAG	3850 fluorescence intensity (a.u.)
AATACCAACTGTTTGATTTGAATCGTGTGATGTACTTCACCGGAGTCACCTAGTGCAG	3250 fluorescence intensity (a.u.)
TTTTATGCTAACTTAAATTGATTAGACTTTCTAATTACAGCGGAGTCACCTAGTGCAG	40300 fluorescence intensity (a.u.)
GGTGATGGGGCAAATGATGTTGGCATGCTTCAGGAAGCTGCGGAGTCACCTAGTGCAG	6800 fluorescence intensity (a.u.)
TTTTGATTGATAAGTATAACCATGTATAAGCGAAACAATGCGGAGTCACCTAGTGCAG	64500 fluorescence intensity (a.u.)
AATAATCATACTAATTATATAAGTATATACTAAATATTATCGGAGTCACCTAGTGCAG	7370 fluorescence intensity (a.u.)
TTTCGATTACGATTATTGTTATTATCGCTAAACCAAATAACGGAGTCACCTAGTGCAG	4270 fluorescence intensity (a.u.)
AATTAATTGGTACTAAATGCTTTCAGGCTTTGGTCGTAGACGGAGTCACCTAGTGCAG	52100 fluorescence intensity (a.u.)
CAAATCTAAATTGTCTGTTCAGGCTGTAGCTAAAATAAACCGGAGTCACCTAGTGCAG	4370 fluorescence intensity (a.u.)
TAATGATGAGGATGTCCTATAATTTAAATTAAAACCGCTTCGGAGTCACCTAGTGCAG	5530 fluorescence intensity (a.u.)
TTTGAGACATTGATTTATTAGGACGGAGAGTGCACAGGAGCGGAGTCACCTAGTGCAG	10400 fluorescence intensity (a.u.)
GTTGAAATTAAAGACGATGTGACTGAAAAGTTATGTGTGTCGGAGTCACCTAGTGCAG	8780 fluorescence intensity (a.u.)
ATACTCAATTAATCATACGCTAATGGCTCACCTCGTTTTGCGGAGTCACCTAGTGCAG	21600 fluorescence intensity (a.u.)
TGTAAACAATTACTCATTAATTCGAGGGACTTGTACGCAACGGAGTCACCTAGTGCAG	5170 fluorescence intensity (a.u.)
GCGTTGGATTTGATTGGGCCTCACCGAAATTTCGGTCCGACGGAGTCACCTAGTGCAG	22500 fluorescence intensity (a.u.)

Sequence	binding signal
CTTAAATTTTGTAAAATTATAATGGTATGGTTCAAATTTTCGGAGTCACCTAGTGCAG	8460 fluorescence intensity (a.u.)
TAAACTGTTATTCAGCACGTGATTTATACCACGGGTATAACGGAGTCACCTAGTGCAG	10300 fluorescence intensity (a.u.)
CCTTGTACCAAGAGAATAGATTGACCAAATTGTAAGCGAACGGAGTCACCTAGTGCAG	5240 fluorescence intensity (a.u.)
CAGCAAATTAAATAGTTAAATTTTGAGCATAAACCTATTCCGGAGTCACCTAGTGCAG	30400 fluorescence intensity (a.u.)
CATTACAACAGCTAATCAATTGTTTACATTTGCCTTGCTGCGGAGTCACCTAGTGCAG	7210 fluorescence intensity (a.u.)
AACGACGATTAGATTGGAACGACAAACCGGTCTGCTGATACGGAGTCACCTAGTGCAG	14900 fluorescence intensity (a.u.)
ACAATCATGTAAGTTTAAATTTAACTTATACATATCGCAACGGAGTCACCTAGTGCAG	6240 fluorescence intensity (a.u.)
AAACAAATGATTTCCATGTTTTATGTGCATTGGTGCATACCGGAGTCACCTAGTGCAG	6200 fluorescence intensity (a.u.)
AAAACCGTTGTGATTATTATTGTCATATTAGACCGCTTAACGGAGTCACCTAGTGCAG	3870 fluorescence intensity (a.u.)
TAACTGTAATTTTGAGTAACAAATTCAAACTGTGACTCCCCGGAGTCACCTAGTGCAG	9370 fluorescence intensity (a.u.)
CCGGCTAATGATCGATAAATGATACTACAATAAATCTAAGCGGAGTCACCTAGTGCAG	7060 fluorescence intensity (a.u.)
GCTAAAACCCAATAGTTGTGCAGGAATCATCAGCTCATCGCGGAGTCACCTAGTGCAG	3740 fluorescence intensity (a.u.)
TCAAATTTAAACTTGTACGTTTACGGAGTGATATATTACACGGAGTCACCTAGTGCAG	3150 fluorescence intensity (a.u.)
TATTTAATTAATCACACGTTAATGATCACTTCGTTTTGCCCGGAGTCACCTAGTGCAG	44400 fluorescence intensity (a.u.)
CTAACTCAGTTATAGCTGTCTAACAAAGCAAATTAGCTTTCGGAGTCACCTAGTGCAG	3180 fluorescence intensity (a.u.)
CAAAATTAACTTGCGCGCCACTCTGCCTCTCAACCCTTCACGGAGTCACCTAGTGCAG	8740 fluorescence intensity (a.u.)
CCATTTTGACTTCGCAATTATGTGCATTAATTAATCTCTTCGGAGTCACCTAGTGCAG	16800 fluorescence intensity (a.u.)
TGTAATGATTACATATGTGTGATGCTTTCACCATGCTAACCGGAGTCACCTAGTGCAG	13000 fluorescence intensity (a.u.)
TAAGCCTAATTGCTCCACGATTTGATAATGTGGTGCTACACGGAGTCACCTAGTGCAG	14500 fluorescence intensity (a.u.)
ATAAATAGTAATTGACATTAAGAATGGGACCCACACTCTACGGAGTCACCTAGTGCAG	53000 fluorescence intensity (a.u.)
TTGGTTTAATCAATAAGCTTAATTTGCATGACAACTGAAGCGGAGTCACCTAGTGCAG	31200 fluorescence intensity (a.u.)
